Data as given in the supplement of paper PMC8183993.
Counter-ions that a name gives are not always drawn. ± gives the standard deviation of the averaged measurements. Over roughly 3,200 compounds, “nuclei count (viability) relative to DMSO” has its median near 99; the lowest 2% begin near 16. The list shows a part of the results.

Tested on: U2OS
Experiment: nuclei count (viability) relative to DMSO (% of DMSO); higher = more viable cells
Conditions: 10 µM; 24 h
Method: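 Primary image-based screen in U2OS cells: compounds at 10 uM for 24 h, then a 1 h o-propargyl-puromycin (OPP) pulse, click labelling, and high-throughput microscopy. Mean cytoplasmic OPP intensity and nuclei count were normalised to DMSO wells within each plate (DMSO = 100) and averaged over triplicate plates.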

**Q.** Which nuclei count does the source give for `COc1ccc(C(=O)CC(=O)c2ccc(C(C)(C)C)cc2)cc1` [Avobenzone (Parsol 1789)] here?
**A.** 93.4

**Q.** How did the nuclei count turn out when `Cc1ccccc1C(=O)c1ccc(Nc2ccc(Br)cc2N)cc1Cl` was run?
**A.** 98.2

**Q.** For `CC(=O)OCC(=O)[C@@]1(O)[C@H](C)C[C@H]2[C@@H]3CCC4=CC(=O)C=C[C@]4(C)[C@@]3(F)[C@@H](O)C[C@@]21C` [Dexamethasone acetate], which nuclei count is on record?
**A.** 99.8 ± 6.6

**Q.** Which nuclei count does the source give for `COc1ncnc(NS(=O)(=O)c2ccc(N)cc2)c1OC` [Sulfadoxine] here?
**A.** 107

**Q.** `c1ccc(C(O[C@@H]2CCCN(CCc3ccc4c(c3)OCO4)C2)c2ccccc2)cc1` [Zamifenacin fumarate] was tested. Which nuclei count did it give?
**A.** 100

**Q.** For `COc1ccc(C(=O)c2ccccc2)c(O)c1` [Oxybenzone], which nuclei count is on record?
**A.** 104

**Q.** For `COc1c(N2C[C@@H]3CCCN[C@@H]3C2)c(F)cc2c(=O)c(C(=O)O)cn(C3CC3)c12` [Moxifloxacin], which nuclei count is on record?
**A.** 109

**Q.** `CC1(C)CCC[C@]2(C)[C@H]3CC(=O)O[C@]3(C)CC[C@@H]12` [Sclareolide (Norambreinolide)] was tested. Which nuclei count did it give?
**A.** 94.4

**Q.** `Oc1ccc(-c2c(-c3ccccc3)nn3c(C(F)(F)F)cc(C(F)(F)F)nc23)cc1` was tested. Which nuclei count did it give?
**A.** 100

**Q.** How did the nuclei count turn out when `CCCCCN(CCCCC)C(=O)C(CCC(=O)O)NC(=O)c1ccc(Cl)c(Cl)c1` (configuration not stated) [Lorglumide sodium salt] was run?
**A.** 110

**Q.** How did the nuclei count turn out when `Cc1cc(N2CCOCC2)cc2[nH]c(-c3c(NC[C@@H](O)c4cccc(Cl)c4)cc[nH]c3=O)nc12` was run?
**A.** 48

**Q.** `CC(C)(C)NC(=O)[C@@H]1C[C@@H]2CCCC[C@@H]2CN1C[C@@H](O)[C@H](Cc1ccccc1)NC(=O)[C@H](CC(N)=O)NC(=O)c1ccc2ccccc2n1` [Saquinavir mesylate] was tested. Which nuclei count did it give?
**A.** 89.7

**Q.** With `COc1ccc2[nH]c([S@@+]([O-])Cc3ncc(C)c(OC)c3C)nc2c1` [Esomeprazole magnesium (Nexium)] as the compound, how does the nuclei count read?
**A.** 105

**Q.** How did the nuclei count turn out when `CS(=O)(=O)N1CCN(Cc2cc3nc(-c4cccc5[nH]ncc45)nc(N4CCOCC4)c3s2)CC1` [Pictilisib (GDC-0941)] was run?
**A.** 79.6

**Q.** For `CC(C)NCC(O)c1ccc(O)c(O)c1` (configuration not stated) [Isoproterenol hydrochloride], which nuclei count is on record?
**A.** 97.7

**Q.** For `Nc1nc2c(ncn2COCCO)c(=O)[nH]1` [Acyclovir], which nuclei count is on record?
**A.** 107 ± 15

**Q.** `O=C(Nc1ccccc1)C12CC1C(=NO)c1ccccc1O2` (configuration not stated) was tested. Which nuclei count did it give?
**A.** 99.8

**Q.** How did the nuclei count turn out when `N#CCNC(=O)c1ccc(-c2ccnc(Nc3ccc(N4CCOCC4)cc3)n2)cc1` [Momelotinib (CYT387)] was run?
**A.** 43.1

**Q.** `COC(=O)C1=C(C)NC(C)=C([N+](=O)[O-])[C@H]1c1ccccc1C(F)(F)F` was tested. Which nuclei count did it give?
**A.** 99.5

**Q.** `OCc1c[nH]c2ccccc12` [Indole-3-carbinol] was tested. Which nuclei count did it give?
**A.** 101

**Q.** Which nuclei count does the source give for `Cc1c(NC(=O)c2cccnc2)c(=O)n(-c2ccccc2)n1C` [Nifenazone] here?
**A.** 107

**Q.** For `O=C(/C=C/c1ccc(O)cc1)c1ccc(O)cc1O` [Isoliquiritigenin], which nuclei count is on record?
**A.** 86.5

**Q.** How did the nuclei count turn out when `CS(=O)(=O)OCCCCOS(C)(=O)=O` [Busulfan] was run?
**A.** 96.3

**Q.** `COc1ccccc1N1CCN(CCCCNC(=O)c2ccc(-c3ccc(C(C)=O)cc3)cc2)CC1` was tested. Which nuclei count did it give?
**A.** 104

**Q.** For `CCCCCCCC/C=C\CCCCCCCC(N)=O` [Oleamide], which nuclei count is on record?
**A.** 104

**Q.** For `COC1(C2=NCCN2)COc2ccccc2O1` (configuration not stated), which nuclei count is on record?
**A.** 99.7

**Q.** With `OC[C@H]1O[C@@H](n2cnc3c(N[C@H]4CCC[C@@H]4O)ncnc32)[C@H](O)[C@@H]1O` as the compound, how does the nuclei count read?
**A.** 113

**Q.** Which nuclei count does the source give for `Cc1ncc(-c2ccnc(Nc3ccc(S(C)(=O)=O)cc3)n2)n1C(C)C` here?
**A.** 45.7

**Q.** How did the nuclei count turn out when `CC(C)NC[C@@H](O)COc1ccc(CC(N)=O)cc1` [(R)-(+)-Atenolol] was run?
**A.** 105

**Q.** How did the nuclei count turn out when `NS(=O)(=O)c1cc2c(cc1C(F)(F)F)NCNS2(=O)=O` [Hydroflumethiazide] was run?
**A.** 91.8

**Q.** With `NC(=O)CCCCn1ccc(NC(N)=NCC(F)(F)F)n1` as the compound, how does the nuclei count read?
**A.** 93.7

**Q.** With `CN(C)CCCN=c1c2ccccc2n(C)c2[nH]c(=O)n(C)c(=O)c12` as the compound, how does the nuclei count read?
**A.** 68.8

**Q.** Which nuclei count does the source give for `C[C@@H](O[C@H]1OCCN(Cc2nn(P(=O)(O)O)c(=O)[nH]2)[C@H]1c1ccc(F)cc1)c1cc(C(F)(F)F)cc(C(F)(F)F)c1` [Fosaprepitant dimeglumine] here?
**A.** 90.8

**Q.** `CCC(C)(Oc1ccc(C2(c3ccc(OC(C)(CC)C(=O)O)cc3)CCCCC2)cc1)C(=O)O` (configuration not stated) [Clinofibrate] was tested. Which nuclei count did it give?
**A.** 104

**Q.** How did the nuclei count turn out when `COc1cc2nccc(Oc3ccc(NC(=O)NC4CC4)c(Cl)c3)c2cc1C(N)=O` [E7080 (Lenvatinib)] was run?
**A.** 97.52 ± 0.17

**Q.** For `CCn1c(=O)[nH]c2cc(Cl)c(Cl)cc21`, which nuclei count is on record?
**A.** 113

**Q.** Which nuclei count does the source give for `CC(=N)NCCCC[C@H](N)C(=O)O` [L-NIL hydrochloride] here?
**A.** 112

**Q.** With `CN1CCc2c(c3ccccc3n2Cc2ccc(C(=O)NO)cc2)C1` [Tubastatin A HCl] as the compound, how does the nuclei count read?
**A.** 58.9

**Q.** With `CC[C@@H]1C(=O)OC[C@@H]1Cc1cncn1C` [Pilocarpine hydrochloride] as the compound, how does the nuclei count read?
**A.** 103

**Q.** With `CC[C@@H]1C(=O)OC[C@@H]1Cc1cncn1C` [Pilocarpine nitrate] as the compound, how does the nuclei count read?
**A.** 109

**Q.** Which nuclei count does the source give for `CC(C)(CO)c1cc2cc(NC(=O)C3(c4ccc5c(c4)OC(F)(F)O5)CC3)c(F)cc2n1C[C@@H](O)CO` here?
**A.** 102

**Q.** With `Cc1c(CN2CCN(C(=O)[C@H](C)O)CC2)sc2c(N3CCOCC3)nc(-c3cnc(N)nc3)nc12` [Apitolisib (GDC-0980, RG7422)] as the compound, how does the nuclei count read?
**A.** 74.8

**Q.** How did the nuclei count turn out when `Cc1cnc(-c2cc(N3CCN(C(=O)CCS(C)(=O)=O)CC3)ncc2Cl)c(C)c1` was run?
**A.** 105

**Q.** How did the nuclei count turn out when `CC(=O)CC(c1ccccc1)c1c(O)c2ccccc2oc1=O` (configuration not stated) [Warfarin] was run?
**A.** 89.6

**Q.** `NS(=O)(=O)c1cc2c(cc1Cl)NC(C1CC3C=CC1C3)NS2(=O)=O` (configuration not stated) [Cyclothiazide] was tested. Which nuclei count did it give?
**A.** 105

**Q.** Which nuclei count does the source give for `S=C(S)N1CCCC1` [Pyrrolidinedithiocarbamate ammonium] here?
**A.** 84.9

**Q.** Which nuclei count does the source give for `CO[C@@H]1[C@@H](O[C@@H]2O[C@H](C)[C@@H](O[C@H]3C[C@@](C)(O)[C@@H](OC(=O)CC(C)C)[C@H](C)O3)[C@H](N(C)C)[C@H]2O)[C@@H](CC=O)C[C@@H](C)[C@@H](O)/C=C/C=C/C[C@@H](C)OC(=O)C[C@H]1OC(C)=O` [Josamycin] here?
**A.** 92.7

**Q.** With `O=c1oc2c(O)c(O)cc3c(=O)oc4c(O)c(O)cc1c4c23` [Ellagic Acid] as the compound, how does the nuclei count read?
**A.** 99.7

**Q.** `O=c1oc2c(O)c(O)cc3c(=O)oc4c(O)c(O)cc1c4c23` [Ellagic acid] was tested. Which nuclei count did it give?
**A.** 105

**Q.** How did the nuclei count turn out when `CC(=O)OCC(=O)[C@@]12OC(C)(C)O[C@@H]1C[C@H]1[C@@H]3C[C@H](F)C4=CC(=O)C=C[C@]4(C)[C@@]3(F)[C@@H](O)C[C@@]12C` [Fluocinonide] was run?
**A.** 109

**Q.** How did the nuclei count turn out when `CC(=O)OCC(=O)[C@@]12OC(C)(C)O[C@@H]1C[C@H]1[C@@H]3C[C@H](F)C4=CC(=O)C=C[C@]4(C)[C@@]3(F)[C@@H](O)C[C@@]12C` [Fluocinonide (Vanos)] was run?
**A.** 91.9

**Q.** With `c1ccc2c(CC3=NCCN3)cccc2c1` [Naphazoline hydrochloride] as the compound, how does the nuclei count read?
**A.** 103

**Q.** For `CCN(CC)CC(=O)Nc1c(C)cccc1C` [Lidocaine hydrochloride], which nuclei count is on record?
**A.** 98.8

**Q.** For `CC(=O)NS(=O)(=O)c1ccc(N)cc1` [Sulfacetamide Sodium], which nuclei count is on record?
**A.** 111

**Q.** With `CC(=O)NS(=O)(=O)c1ccc(N)cc1` [Sulfacetamide sodic hydrate] as the compound, how does the nuclei count read?
**A.** 98.2

**Q.** Which nuclei count does the source give for `Cc1cn([C@H]2C=C[C@@H](CO)O2)c(=O)[nH]c1=O` [Stavudine] here?
**A.** 109.2 ± 0.36

**Q.** How did the nuclei count turn out when `C=C1CC[C@@H]2[C@](C)(CO)[C@H](O)CC[C@@]2(C)[C@@H]1C/C=C1/C(=O)OC[C@H]1O` [Andrographolide] was run?
**A.** 73.1

**Q.** `OCc1ccccc1O[C@@H]1O[C@H](CO)[C@@H](O)[C@H](O)[C@H]1O` [Salicin (Salicoside, Salicine)] was tested. Which nuclei count did it give?
**A.** 103

**Q.** Which nuclei count does the source give for `CN1C(CCl)Nc2cc(Cl)c(S(N)(=O)=O)cc2S1(=O)=O` (configuration not stated) [Methyclothiazide] here?
**A.** 101

**Q.** Which nuclei count does the source give for `C=CC1=C(C(=O)O)N2C(=O)[C@@H](NC(=O)/C(=N\O)c3csc(N)n3)[C@H]2SC1` [Cefdinir (Omnicef)] here?
**A.** 92.3

**Q.** How did the nuclei count turn out when `C=CC1=C(C(=O)O)N2C(=O)[C@@H](NC(=O)/C(=N\O)c3csc(N)n3)[C@H]2SC1` [Cefdinir] was run?
**A.** 112

**Q.** Which nuclei count does the source give for `COc1ccc(NS(=O)(=O)c2ccc(I)cc2)cc1N1CCN(C)CC1` here?
**A.** 102

**Q.** `CNC(=O)c1cc(Oc2ccc(NC(=O)Nc3ccc(Cl)c(C(F)(F)F)c3)cc2)ccn1` [Sorafenib tosylate] was tested. Which nuclei count did it give?
**A.** 27

**Q.** For `CNC(=O)c1cc(Oc2ccc(NC(=O)Nc3ccc(Cl)c(C(F)(F)F)c3)cc2)ccn1` [Sorafenib (Nexavar)], which nuclei count is on record?
**A.** 92.9

**Q.** With `CNC(=O)c1cc(Oc2ccc(NC(=O)Nc3ccc(Cl)c(C(F)(F)F)c3)cc2)ccn1` [Sorafenib] as the compound, how does the nuclei count read?
**A.** 85.4

**Q.** Which nuclei count does the source give for `COc1cccc2c1C(=O)c1c(O)c3c(c(O)c1C2=O)C[C@@](O)(C(C)=O)C[C@@H]3O[C@H]1C[C@H](N)[C@H](O)[C@H](C)O1` [Daunorubicin hydrochloride] here?
**A.** 12.3

**Q.** `COc1cccc2c1C(=O)c1c(O)c3c(c(O)c1C2=O)C[C@@](O)(C(C)=O)C[C@@H]3O[C@H]1C[C@H](N)[C@H](O)[C@H](C)O1` [Daunorubicin HCl (Daunomycin HCl)] was tested. Which nuclei count did it give?
**A.** 10.2

**Q.** How did the nuclei count turn out when `Cn1cc(CCn2cnc(-c3cnn(C)c3)c2-c2ccc(C#N)cc2)cn1` was run?
**A.** 92.9

**Q.** `CC(C)OC(=O)OCOP(=O)(CO[C@H](C)Cn1cnc2c(N)ncnc21)OCOC(=O)OC(C)C` [Tenofovir Disoproxil Fumarate] was tested. Which nuclei count did it give?
**A.** 92.2

**Q.** How did the nuclei count turn out when `CCCN(C/C=C/I)C1CCc2cccc(O)c2C1` (configuration not stated) [8-Hydroxy-PIPAT oxalate] was run?
**A.** 86.9

**Q.** For `C[C@@H]1C[C@H]2[C@@H]3CCC4=CC(=O)C=C[C@]4(C)[C@@]3(F)[C@@H](O)C[C@]2(C)[C@@]1(O)C(=O)COP(=O)(O)O` [Dexamethasone Sodium Phosphate], which nuclei count is on record?
**A.** 109

**Q.** For `Cc1cc(C)c(S(=O)(=O)Nc2ccccc2C(F)(F)F)c(C)c1`, which nuclei count is on record?
**A.** 99.2
